We go through 5 substances from article PMC5196188.

Amino acid sequences for entries named in this document (tags omitted). A change or cut given only in a name is not applied to a line headed by its entry. Residues count along the entry.
UniProt Q6NSJ2: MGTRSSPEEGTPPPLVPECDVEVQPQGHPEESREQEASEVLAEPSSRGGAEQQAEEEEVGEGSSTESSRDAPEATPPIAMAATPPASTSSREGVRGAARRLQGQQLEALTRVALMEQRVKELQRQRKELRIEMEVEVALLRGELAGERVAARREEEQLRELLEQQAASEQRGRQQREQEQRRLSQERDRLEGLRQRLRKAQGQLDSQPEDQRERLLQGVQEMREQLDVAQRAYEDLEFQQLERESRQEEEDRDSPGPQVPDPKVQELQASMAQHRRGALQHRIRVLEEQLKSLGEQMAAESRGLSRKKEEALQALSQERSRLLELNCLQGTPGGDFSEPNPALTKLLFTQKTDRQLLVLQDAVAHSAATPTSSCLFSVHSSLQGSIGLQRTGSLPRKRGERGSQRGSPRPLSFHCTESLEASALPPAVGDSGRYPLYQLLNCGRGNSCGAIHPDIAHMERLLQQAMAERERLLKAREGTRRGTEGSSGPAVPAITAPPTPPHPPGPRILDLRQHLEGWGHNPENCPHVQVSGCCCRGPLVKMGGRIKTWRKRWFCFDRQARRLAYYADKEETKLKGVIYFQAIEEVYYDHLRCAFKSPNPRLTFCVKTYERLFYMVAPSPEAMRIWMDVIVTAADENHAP
UniProt Q00987: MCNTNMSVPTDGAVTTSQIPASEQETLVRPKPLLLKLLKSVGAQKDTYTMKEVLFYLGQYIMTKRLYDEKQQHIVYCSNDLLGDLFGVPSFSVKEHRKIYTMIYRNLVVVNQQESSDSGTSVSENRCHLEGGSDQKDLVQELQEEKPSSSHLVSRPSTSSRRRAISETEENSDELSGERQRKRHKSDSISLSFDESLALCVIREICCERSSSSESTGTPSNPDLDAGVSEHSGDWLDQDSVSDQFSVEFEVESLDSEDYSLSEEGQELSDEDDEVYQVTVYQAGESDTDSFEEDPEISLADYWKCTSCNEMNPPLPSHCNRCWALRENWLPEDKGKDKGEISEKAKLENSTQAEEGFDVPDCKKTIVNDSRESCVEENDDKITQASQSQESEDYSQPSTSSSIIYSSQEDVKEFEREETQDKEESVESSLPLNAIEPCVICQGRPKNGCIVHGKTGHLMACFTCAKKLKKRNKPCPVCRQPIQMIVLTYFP
GST-MDM2 aa 1-301: residues 1-301 of Q00987
GST-MDM2 aa 1-150: residues 1-150 of Q00987
GST-MDM2 aa 284-491: residues 284-491 of Q00987

These are yes or no findings as the source states them, for the method shown. For part of these data: Binding seen in cells or lysates may run through a third protein. Some binding calls cover weakened binding; strength is not graded here.

Experiment [1] concerns the target PHLDB3-Flag (pleckstrin homology-like domain, family B, member 3) (human) (UniProt Q6NSJ2). The experiment is described as follows: co-IP; HEK293 cells transfected with PHLDB3-Flag and/or HA-MDM2; reverse co-IPs; lysis buffer 50 mM Tris/HCl pH 7.5, 0.5% NP-40, 1 mM EDTA, 150 mM NaCl; 4 °C.
Another experiment concerns the target GST-MDM2 (UniProt Q00987). In words: pull-down; GST-MDM2 or fragments (500 ng) on glutathione-Sepharose 4B beads, purified His-PHLDB3 in solution; 4 °C for 4 h (methods) or one hour at room temperature; washes in 50 mM Tris/HCl pH 8.0, 0.5% NP-40, 1 mM EDTA, 150 mM NaCl, 10% glycerol; immunoblot with anti-PHLDB3; both ….
In the next experiment the target is GST-MDM2 aa 1-150 (UniProt Q00987). Described as above.
For the next experiment, the target named is GST-MDM2 aa 1-301 (UniProt Q00987). The experiment is described as above.
In the next experiment the target is GST-MDM2 aa 284-491 (UniProt Q00987). The description is as above.
In experiment [2] the target is HA-MDM2 (mouse double minute 2 homolog) (UniProt Q00987). In words: co-IP; HEK293 cells transfected with PHLDB3-Flag and/or HA-MDM2; reverse co-IPs; lysis buffer 50 mM Tris/HCl pH 7.5, 0.5% NP-40, 1 mM EDTA, 150 mM NaCl; 4 °C.
The target of the next experiment is C464A MDM2 mutant (UniProt Q00987). The experiment is described as follows: co-IP; Supplementary Fig. 3; MDMX-MDM2 complexes with rising amounts of ectopic PHLDB3 (panel a); C464A MDM2 with PHLDB3 (b) and MDMX (c); cells and antibodies not shown; method of panels b, c taken from panel a.
Experiment [3] concerns the target MDM2 (Supplementary Fig. 3) (UniProt Q00987). Described as above.
For experiment [4], the target named is endogenous MDM2 (human (endogenous in HCT116)) (UniProt Q00987). The experiment is described as follows: co-IP; endogenous proteins; HCT116 p53+/+ cells treated with Doxorubicin for 16 h and MG132 for 6 h; IgG as control.

Consider “HA-MDM2 (mouse double minute 2 homolog) (from UniProt Q00987 1-491)”, for which the binding entry in experiment [1] is listed as “binds”.
In the case of His-PHLDB3 (from UniProt Q6NSJ2 1-640), the binding result with GST-MDM2 is recorded as “binds”; in the experiment with GST-MDM2 aa 1-150, “no binding”; with GST-MDM2 aa 1-301, “no binding”; with GST-MDM2 aa 284-491, “binds”.
For the substance “PHLDB3-Flag (pleckstrin homology-like domain, family B, member 3) (from UniProt Q6NSJ2 1-640)”, the binding result in [2] is “binds”.
Consider “ectopic PHLDB3 (Supplementary Fig. 3) (from UniProt Q6NSJ2 1-640)”, for which the binding entry (in the experiment with C464A MDM2 mutant; in [3]) was “binds” throughout.
For “endogenous PHLDB3 (from UniProt Q6NSJ2 1-640)”, in [4], the binding entry is listed as “binds”.
